Test results: PubChem BioAssay AID1030 (National Center for Advancing Translational Sciences (NCATS), 2008)
In all, about 220,000 compounds went through this assay and about 16,000 (7.3%) were called active. The inconclusive results got no clear call from the source; some entries with a clear call stand among them for comparison. Calls follow the shape of the dose curve; as a rule, active = well fitted inhibition curve with a large enough effect (not every such curve was filed as active); inconclusive = small, poorly fitted or top-dose-only effect, or another doubt; inactive = no such curve, though single readings can be large or run the other way. No potency is given beside an inconclusive call; the fits are too rough.

Target: Aldehyde dehydrogenase 1A1 (Homo sapiens) (UniProt P00352)
Sequence of UniProt P00352 (P00352 whole entry, looked up): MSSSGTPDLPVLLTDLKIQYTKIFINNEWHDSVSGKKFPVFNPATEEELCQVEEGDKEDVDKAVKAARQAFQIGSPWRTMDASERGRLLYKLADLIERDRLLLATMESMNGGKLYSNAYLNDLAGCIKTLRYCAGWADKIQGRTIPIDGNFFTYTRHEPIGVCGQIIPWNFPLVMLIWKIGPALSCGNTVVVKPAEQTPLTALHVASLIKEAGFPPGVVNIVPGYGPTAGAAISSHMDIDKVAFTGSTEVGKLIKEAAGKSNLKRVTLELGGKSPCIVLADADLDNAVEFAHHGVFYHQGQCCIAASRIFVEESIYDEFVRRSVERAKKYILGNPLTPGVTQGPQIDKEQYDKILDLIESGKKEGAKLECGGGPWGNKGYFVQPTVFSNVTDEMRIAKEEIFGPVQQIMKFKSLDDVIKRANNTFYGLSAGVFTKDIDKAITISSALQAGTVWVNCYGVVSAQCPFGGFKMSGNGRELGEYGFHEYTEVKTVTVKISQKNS
Assay: qHTS Assay for Inhibitors of Aldehyde Dehydrogenase 1 (ALDH1A1);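 as to activity, negative = inhibition: plate controls were no enzyme wells and a reference inhibitor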
Details: Purified ALDH1A1, NADH fluorescence, propionaldehyde substrate; series mostly up to 75.3 µM; activity, negative = inhibition: at the top concentration
Potency is read from the fitted curve at half-maximal effect; tags tell the direction and shape of the fitted curve.

SMILES | Potency | activity, negative = inhibition
CCOc1ccc2ccccc2c1C(=O)N1CCN(c2ccccc2)CC1 | inconclusive [inhibitor, single point] | –
Cc1ccc(-n2c(-c3ccccc3)c[n+]3c2CCc2ccccc2-3)c(C)c1 | – | inactive: 10.4%
Nc1cccc(-c2nc3ccc(N)cc3s2)c1 | inconclusive [inhibitor, partial curve] | –
CCOc1cc(/C=C2/C(=O)N(c3ccccc3)N=C2C)ccc1OC(=O)c1ccco1 | inconclusive [inhibitor, partial curve] | –
CC(C)=CCC/C(C)=C/CO | inactive | –
COc1ccc(NC(=O)C(c2ccccc2)N(C)C(=O)c2ccc(=O)[nH]c2)cc1 (centres undefined) | – | inactive: -7.88%
COC(=O)c1ccc(NC(=O)Nc2ccc(OC)c(OC)c2)cc1 | – | inactive: 3.44%
COCCNc1nc(-c2cc(C)c(C)cc2C)cs1 | inconclusive [inhibitor, single point] | –
O=C(O)Cn1nnnc1-c1ccc(F)cc1 | inconclusive [inhibitor, single point] | –
CC(C)c1ccc2c([Si](C)(C)C)c3c(nc2c1)-c1cccc(=O)n1C3 | inconclusive [inhibitor, partial curve] | –
CC(C)c1nc(SCC(=O)N2CCCC2)c2ccccc2n1 | active: 3.16 µM | –
N#Cc1nc(COc2ccc(Br)cc2)oc1N1CCN(Cc2ccccc2)CC1 | inconclusive [inhibitor, single point] | –
FC(F)(F)c1cc(-c2cccs2)nc(-n2cc(Br)cn2)n1 | inconclusive [inhibitor, partial curve] | –
Clc1ccc(Cc2nn3c(Cn4nnc5ccccc54)nnc3s2)cc1 | active: 22.4 µM | –
CN(C)C(=O)NC(NC(=S)Nc1ccccc1)C(Cl)(Cl)Cl (centres undefined) | active: 12.6 µM | –
COc1ccc(S(=O)(=O)NCc2ccc(C(=O)N(C)Cc3ccco3)cc2)cc1 | inconclusive [inhibitor, partial curve] | –
CCN(CC)S(=O)(=O)c1ccc(NC(=O)COC(=O)CN2C(=O)c3ccccc3C2=O)cc1 | inconclusive [inhibitor, partial curve, poor fit] | –
CCOC(=O)N1CCC2(CC1)C(C#N)=C(N)Oc1n[nH]c(CSc3ccc(C)cc3)c12 | – | inactive: -13.3%
CCOC(=O)CSC1=Nc2ccccc2C2=NC(CC(=O)NCc3ccccc3)C(=O)N12 (centres undefined) | inconclusive [inhibitor, partial curve] | –
COC(=O)C1(C)C=C(Nc2ccc(OC)cc2)C(=O)N1c1ccc(OC)cc1 (centres undefined) | inconclusive [inhibitor, single point] | –
COc1ccccc1/C=C1\SC(=S)N(CCC(=O)NC2=NCCS2)C1=O | inconclusive [inhibitor, partial curve, poor fit] | –
Cc1nnc(SCc2nnc(-c3cccs3)o2)n1Cc1ccccc1 | active: 12.6 µM | –
CCn1c(-c2ccccc2)c(C(=O)O)c2ccccc21 | inconclusive [inhibitor, single point] | –
COC(=O)N1C2(C=CC1(C)C(=O)NCc1ccc(N(C)C)cc1)CCCCC2 (centres undefined) | active: 25.1 µM | –
Cc1cc(Br)c(OCC(=O)NN)c2c1CCC2 | active: 2 µM | –

SMILES | Potency | activity, negative = inhibition
COc1cc(S(=O)(=O)N2CCCCC2)ccc1NC(=O)/C=C/c1ccccc1 | inconclusive [inhibitor, single point] | –
COc1cc(/C=C/C(=O)OCC(=O)NC(=O)NC(C)C)cc(OC)c1OC | inconclusive [inhibitor, partial curve] | –
CCCC(=O)C1=C(O)C(C(=O)OC)C(C)(C)CC1=NC(C)(C)C (centres undefined) | inconclusive [inhibitor, single point] | –
Clc1ccc(OCCCNCc2ccccc2)c(Br)c1 | – | inactive: -8.58%
Cc1c(C(=O)N2CCCCC2)nnn1-c1nonc1N | active: 7.94 µM | –
CC(Sc1ncnc2ccccc12)C(=O)Nc1ccc2c(c1)OCO2 (centres undefined) | – | inactive: -0.843%
O=Cc1ccccc1Oc1nc(N2CCOCC2)nc(N2CCOCC2)n1 | inconclusive [inhibitor, single point] | –
Cc1nn(Cc2c(Cl)cccc2Cl)c(Cl)c1/C=N/NC(=O)c1cccnc1 | – | inactive: -14.9%
CCN(CC)c1ccc2c(c1)C(=O)N(C)C2=O | inconclusive [inhibitor, single point] | –
Cc1cccc(CC2CC(=O)N(c3nc4ccccc4s3)C2=O)c1 (centres undefined) | – | inactive: -8.55%
C=CCn1nnnc1-c1cc(Cl)cc(Cl)c1 | – | inactive: -7.67%
COc1cc(/C=C/C(=O)OCC(=O)NCCC2=CCCCC2)ccc1O | inconclusive [inhibitor, partial curve] | –
O=C(COC(=O)COc1ccccc1[N+](=O)[O-])Nc1ccccc1Br | active: 17.8 µM | –
CCCOc1ccc(NC(=O)CC2C(=O)N(Cc3ccccc3)C(=S)N2Cc2cccs2)cc1 (centres undefined) | inconclusive [inhibitor, partial curve, poor fit] | –
O=C(NS(=O)(=O)c1ccc(F)cc1)O[C@@H]1C(=O)c2cc(Br)ccc2O[C@H]1c1ccc2c(c1)OCO2 | inconclusive [inhibitor, partial curve] | –
CCN1C(=O)[C@H]2[C@H]3[C@H](O)[C@H](O)C/C(=N/O[C@@H](C)c4cc(-c5c(C)cc(C)cc5C)no4)[C@@H]3CC[C@@H]2C1=O | – | inactive: 2.93% [at 13.5 µM]
CN1CC(=O)NC1=NC(=O)c1ccc(Cl)c(S(=O)(=O)N2CCCCCC2)c1 | – | inactive: 11.8%
CC1(C)Cc2noc(N)c2C(C)(C)N1O | inconclusive [inhibitor, partial curve] | –
Cn1c(-c2sc3cc(C(F)(F)F)cnc3c2-c2ccccn2)n[nH]c1=S | active: 35.5 µM | –
CC(C)N(CC#CCC(O)(c1ccccc1)C1CCCC1)CCO (centres undefined) | active: 28.2 µM | –
O=CN1CCN(C2CC(=O)N(c3ccc(Br)cc3)C2=O)CC1 (centres undefined) | inconclusive [inhibitor, single point] | –
CCN(C(=O)CSc1ccc2c(c1)OCCO2)C1CCS(=O)(=O)C1 (centres undefined) | inconclusive [inhibitor, single point] | –
COc1ccc(C)cc1NC(=O)C(OC(=O)C1CC1)c1ccccc1 (centres undefined) | active: 3.98 µM | –
CC(=O)c1ccc(Sc2nnnn2-c2ccccc2)c([N+](=O)[O-])c1 | active: 15.8 µM | –
COc1ccc(-n2c(=O)c(C)nc3cnc(N4CCOCC4)nc32)cc1 | inconclusive [inhibitor, single point] | –

SMILES | Potency | activity, negative = inhibition
CN(C)c1ccc(-c2ccc3ncnc(-n4ccnc4)c3c2)cc1 | inconclusive [inhibitor, single point] | –
O=C(C1Cc2ccccc2CN1S(=O)(=O)c1cccs1)N1CCCCCC1 (centres undefined) | – | inactive: -12.8%
COC(=O)c1ccc(-c2nn(C)c(=O)c3ccccc23)cc1 | inconclusive [inhibitor, partial curve] | –
O=C(O)c1ccc2nc(-c3ccco3)c(-c3ccco3)nc2c1 | inconclusive [inhibitor, partial curve] | –
COc1ccc2cc(/C=N/NC(=O)c3c(Cl)cnn3C)c(Cl)nc2c1 | inconclusive [inhibitor, partial curve] | –
CC1=CC(c2ccccc2)n2nc(NS(=O)(=O)c3ccc(C)cc3)nc2N1 (centres undefined) | active: 0.631 µM | –
COc1ccc(CNC(=O)C(C)Cc2ccccc2)cc1O (centres undefined) | inactive | –
Nc1ncnc2nc(N3CCN(C(=O)c4ccccc4)CC3)[nH]c12 | inconclusive [inhibitor, partial curve] | –
O=C(NC12CC3CC(CC(C3)C1)C2)c1ccc(-c2ccc(Cl)cc2)o1 | inconclusive [inhibitor, single point] | –
CC(C)(C)c1ccc(S(=O)(=O)NCc2ccc(C(=O)N3CCOCC3)cc2)cc1 | active: 11.2 µM | –
CC(=O)c1sc(NC(=O)COc2ccc(Cl)cc2Cl)nc1C | active: 11.2 µM | –
Cc1cc(NC(=O)CN2C(=O)C3CC=CCC3C2=O)no1 (centres undefined) | – | inactive: 5.38%
NC(=O)c1sc(=S)n(-c2ccc(Br)cc2)c1N | – | inactive: 0.0346%
Cc1ccc(-n2ncc3c(=O)[nH]c(SCC(=O)N4CCCC4)nc32)cc1C | – | inactive: -1.13%
COCCn1c(=NC(=O)c2nc3ccccc3s2)sc2cc(S(C)(=O)=O)ccc21 | inconclusive [inhibitor, partial curve] | –
O=c1c2ccccc2nnn1Cc1ccccc1Cl | – | inactive: -8.03%
Cc1ccc(-c2nc3ccccn3c2NC(=O)c2ccco2)cc1 | inconclusive [inhibitor, single point] | –
COc1ccc(C(C)=O)cc1CSc1nnc(C)n1-c1ccccc1 | inconclusive [inhibitor, single point] | –
CC1=C(C(=O)OCc2ccccc2)C(/C=C/c2ccccc2)NC(=S)N1 (centres undefined) | active: 0.199 µM | –
COc1ccc(S(=O)(=O)N2CCCCC2)cc1NC(=S)Nc1ccccc1 | inconclusive [inhibitor, single point] | –
Cc1cc(N)n2nc(-c3ccc(C(C)(C)C)cc3)cc2n1 | inconclusive [inhibitor, partial curve] | –
COC(=O)CSc1nc(N)c2c3c(sc2n1)C(c1ccccc1)SC(c1ccccc1)C3 (centres undefined) | inconclusive [inhibitor, partial curve] | –
CC(=O)C1=C(C)OC(N)=C(C#N)C1c1cc2cc(C)c(C)cc2nc1Cl (centres undefined) | inconclusive [inhibitor, single point] | –
Cc1ccccc1NC(=O)Nc1cccs1 | inconclusive [inhibitor, single point] | –
